The campaign covered roughly 310,000 compounds. About 14,000 (4.5%) showed an effect of 50% or more. The effect is printed as a negative number. Some of the results follow.
What follows are compounds tested against human ether-à-go-go-related gene (hERG) potassium channel (human, UniProt Q12809) (assay: primary screen, population patch clamp on CHO cells stably expressing hERG).
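Note: peak tail current of the secondary pulse compared with the same well before compound.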

Sequence of human ether-à-go-go-related gene (hERG) potassium channel (Q12809 whole entry, looked up): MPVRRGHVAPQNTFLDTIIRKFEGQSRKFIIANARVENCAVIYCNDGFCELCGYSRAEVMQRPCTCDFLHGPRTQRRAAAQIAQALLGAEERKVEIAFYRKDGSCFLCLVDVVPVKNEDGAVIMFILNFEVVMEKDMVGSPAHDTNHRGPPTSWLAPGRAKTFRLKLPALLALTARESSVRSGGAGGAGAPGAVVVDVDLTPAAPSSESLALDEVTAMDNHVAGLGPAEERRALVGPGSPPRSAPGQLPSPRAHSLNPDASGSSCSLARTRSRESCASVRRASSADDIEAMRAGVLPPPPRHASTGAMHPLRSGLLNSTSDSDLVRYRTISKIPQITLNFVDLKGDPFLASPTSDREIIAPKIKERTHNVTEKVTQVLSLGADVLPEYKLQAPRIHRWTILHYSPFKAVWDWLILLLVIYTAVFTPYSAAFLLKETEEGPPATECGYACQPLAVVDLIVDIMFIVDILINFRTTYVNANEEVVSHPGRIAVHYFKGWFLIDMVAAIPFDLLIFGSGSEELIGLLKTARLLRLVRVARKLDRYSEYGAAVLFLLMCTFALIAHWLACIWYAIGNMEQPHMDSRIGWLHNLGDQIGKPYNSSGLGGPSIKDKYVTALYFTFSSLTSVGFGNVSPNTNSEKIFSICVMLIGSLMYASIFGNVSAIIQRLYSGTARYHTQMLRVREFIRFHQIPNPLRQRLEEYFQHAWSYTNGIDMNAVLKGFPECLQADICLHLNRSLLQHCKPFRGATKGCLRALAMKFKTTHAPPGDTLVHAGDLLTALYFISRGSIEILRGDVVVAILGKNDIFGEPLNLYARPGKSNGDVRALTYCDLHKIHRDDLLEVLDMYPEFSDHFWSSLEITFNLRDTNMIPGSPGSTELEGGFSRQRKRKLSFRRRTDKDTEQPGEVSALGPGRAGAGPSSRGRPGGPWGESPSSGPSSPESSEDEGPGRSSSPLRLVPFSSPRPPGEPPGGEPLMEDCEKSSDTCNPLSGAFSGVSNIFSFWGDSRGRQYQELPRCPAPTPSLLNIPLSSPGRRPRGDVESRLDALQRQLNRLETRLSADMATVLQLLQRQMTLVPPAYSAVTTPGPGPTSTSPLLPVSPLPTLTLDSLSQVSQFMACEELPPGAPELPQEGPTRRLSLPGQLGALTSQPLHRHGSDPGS

| Compound | hERG current change (%, negative = inhibition) at 10uM [%] |
| --- | --- |
| CCc1noc(C)c1C(=O)OCC(=O)NC(=O)c1ccccc1 | 1 |
| O=C(CSCc1nc2ccccc2[nH]1)Nc1ccc2ccccc2c1 | 1.11 |
| CC(C)C(=O)Nc1cccc(NC(=O)c2ccc([N+](=O)[O-])cc2Cl)c1 | -25.2 |
| CC(=O)N1C(c2ccccc2O)C[C@]2(C)CC(=O)NC12 (some centres unmarked) | 16.1 |
| CC(C)N1CC2=C(C1=O)C(c1ccc(O)cc1)NC(=O)N2C (centres unmarked) | -2.5 |
| COc1cc(/C=C/C(=O)Nc2nnc(C(C)(C)C)s2)cc(OC)c1OC | 25.1 |
| CCOC(=O)C1(N(CC)CC)Sc2cc(C)ccc2NC1=O (centres unmarked) | 12.9 |
| CC(CC(=O)N1CCN(c2ccccc2)CC1)S(=O)(=O)c1ccc2c(c1)NC(=O)CS2 (centres unmarked) | -34.6 |
| C/C(=N\NC(=O)c1ccn[nH]1)c1cn(C)nc1C | 5.21 |
| CCOc1ccccc1C1N=C(c2ccc(OC)cc2)CC(c2ccccc2O)N1 (centres unmarked) | 1.02 |
| O=C(Nc1nnc(-c2ccncc2)o1)c1cccc(N2C(=O)CCC2=O)c1 | 4.56 |
| CC(C)CN(C(=O)c1cc2ccccc2o1)c1c(N)n(CC(C)C)c(=O)[nH]c1=O | 5.32 |
| Cc1cc(=O)oc2c1c(C)nn2-c1cccc(Cl)c1 | -3.81 |
| Cc1ccccc1C(=O)NC1CCN(CC(=O)NCc2ccccc2)CC1 | -29.8 |
| O=C(Nc1ccccc1N1CCCCC1)c1ccc(-c2cccc(Cl)c2)o1 | 26.1 |
| NNC(=O)CCc1ccc(S(=O)(=O)N2CCOCC2)cc1 | 19.3 |
| O=C(c1ccccc1)N1CCN(C(=O)c2cc3ccccc3oc2=O)CC1 | -5.6 |
| COCCCN1C(=O)N(c2ccc(F)cc2)C(=O)C1CC(=O)Nc1ccc(OC)cc1 (centres unmarked) | 11.1 |
| O=C(Nc1ccc(NC(=O)c2ccccc2Br)cc1)c1ccccc1 | 10.3 |
| O=C(O)CC/C(=N/NC(=O)CNC(=O)c1ccc2c(c1)OCCO2)c1ccccc1 | 27.7 |
| COc1ccc(C(=O)N/N=C2\CCS(=O)(=O)c3ccc(F)cc32)cc1OC | 9.07 |
| O=C(Nc1ccc(N2CCOCC2)c(S(=O)(=O)Nc2ccc(Cl)cc2)c1)c1cnccn1 | -2.42 |

| Compound | hERG current change (%, negative = inhibition) at 10uM [%] |
| --- | --- |
| Cc1ccnc(N2CCC(C(=O)NC3CCCCCC3)CC2)n1 | -9.64 |
| CC1CNCCN1S(=O)(=O)c1cccc2cnccc12.Cl (centres unmarked) | 0.35 |
| O=c1c2c(nc3cc(-c4ccc(F)cc4)[nH]n13)CCC2 | 4.81 |
| COCCCNC(=O)c1ccccc1SC | 11.9 |
| Cc1cccc(NC(=S)NCC(c2cccnc2)N2CCOCC2)c1C (centres unmarked) | 5.77 |
| O=C(COC(=O)c1cc([N+](=O)[O-])ccc1N1CCOCC1)Nc1c(Cl)cccc1Cl | -5.53 |
| CC(C)NC(=O)c1c(CSc2ccccc2)noc1C(=O)NCc1ccccc1 | -0.839 |
| O=C(NNC(=S)NC(=O)c1cccs1)c1ccc(O)cc1 | 13 |
| C=CCSc1nnc2c(n1)OC=Nc1ccccc1-2 | -12.3 |
| O=C(CSc1nnc(-c2ccncc2)n1Cc1ccccc1)NC1CCCc2ccccc21 (centres unmarked) | -37.5 |
| Cl.O=C(NCC(c1cccs1)N1CCOCC1)c1ccccc1NS(=O)(=O)c1cccc([N+](=O)[O-])c1 (centres unmarked) | -4.78 |
| COc1cc(OC)cc(C(=O)NC(=S)N2CCCCC2c2cccnc2)c1 (centres unmarked) | -7.98 |
| CCCOc1ccc(C(=O)N2CC3(CC(c4cccc(NC(=O)[C@@H]5CCC(=O)N5)c4)=NO3)C[C@H]2C(=O)NC2(C(N)=O)CC2)cc1 (some centres unmarked) | 7.45 |
| CCOC(=O)CCN(Cc1cccs1)S(=O)(=O)c1ccc(Cl)cc1 | -38.2 |
| O=C(CS(=O)(=O)c1ccccc1)Nc1ncc([N+](=O)[O-])s1 | 13.8 |
| O=C(NCc1ccco1)c1ccc(N2CCCCC2)c([N+](=O)[O-])c1 | -24.2 |
| COc1ccc(C2C=C(Nc3ccccc3)C(=O)N2c2ccccc2)cc1OC (centres unmarked) | 13.6 |
| CCOCCOC(=O)COC(=O)c1ccccc1NC(=O)c1ccccc1 | -12 |
| Cc1cc(N2CCOCC2)nc(SCc2c(Cl)cccc2Cl)n1 | -5.72 |
| COc1ccc(/C=N\n2nnc3ccccc32)cc1 | -0.417 |
| COc1cccc(OC)c1C(=O)Nc1ccc(NC(=O)c2ccco2)cc1 | 10.2 |
| O=C(Nc1ccccc1Cl)C1C2CCC3C(CCC21)C3(Cl)Cl (centres unmarked) | 9.05 |

| Compound | hERG current change (%, negative = inhibition) at 10uM [%] |
| --- | --- |
| C=C(C)CSc1nc2ccccc2c(=O)n1-c1c(C)n(C)n(-c2ccccc2)c1=O | 18.3 |
| CC(NC(=O)Cc1ccc(S(=O)(=O)N2CCOCC2)s1)c1ccc(Cl)cc1Cl (centres unmarked) | -6.8 |
| O=C(COc1ccc(Cl)cc1)Nc1c(-c2cccs2)nc2ccccn12 | -14.4 |
| Cc1cc(N/N=C/c2ccccc2Br)nc2ccccc12 | 9.61 |
| Cc1ccc(-n2c(C)cc(C3N=C(N)Nc4nc5ccccc5n43)c2C)c(C)c1 (centres unmarked) | -13.7 |
| CCN(CC)CCn1c(/N=C/c2ccc(OC)c(OC)c2)nc2ccccc21 | -29.1 |
| COC(=O)CN(c1ccccc1)S(=O)(=O)c1ccc(F)cc1 | -0.757 |
| CCN(CC)C(=O)CC(c1ccc(OC)cc1)c1c(OC)cc(OC)c2ccc(=O)oc12 (centres unmarked) | -5.25 |
| Cc1ccc(NC(=O)CSc2ccc(C(N)=O)cc2[N+](=O)[O-])cc1C | 46.6 |
| CCOc1ccc2oc(C(=O)OCC(=O)N3CC(C)OC(C)C3)c(C)c2c1 (centres unmarked) | -4.66 |
| COC(=O)c1ccc(-n2nnnc2SCC(=O)NCc2cccc(C(=O)O)c2)cc1 | 15.3 |
| CCN(CC)c1ccc(NC(=O)CSc2n[nH]c(-c3ccco3)n2)cc1 | -1.75 |
| OCCC1CN(Cc2cccc3nccnc23)CCN1Cc1ccc(F)c(F)c1 (centres unmarked) | -56.4 |
| COC(=O)N/N=C/c1cn(CCOc2cccc(OC)c2)c2ccccc12 | 3.52 |
| CC(=O)Cc1nsc(NC(=O)c2csc3c2CCCC3)n1 | -8.24 |
| Cc1ccc(CNC(=O)Cn2ccc3ccccc3c2=O)o1 | 7.92 |
| O=C(CN1CCOCC1)N1CCN(c2nnc(-c3ccccc3)c3ccccc23)CC1 | 7.35 |
| Cc1ccc(C(c2c(C)nn(-c3ccccc3)c2N)c2c(C)nn(-c3ccccc3)c2N)cc1 | -20 |
| CC(C)Oc1ccc(CN2CCCC(CO)(Cc3ccccc3)C2)cc1CO (centres unmarked) | -43.1 |
| CC1=NNC(=O)C1C(c1ccc(F)cc1)C(C#N)C#N (centres unmarked) | -7.89 |
| CCOC(=O)N1CCC(N(CCN(C)C)C(=S)Nc2cccc(SC)c2)CC1 | -11.6 |
| COc1ccccc1C1CC(=O)Nc2c1c(=O)n(C)c(=O)n2C (centres unmarked) | -7.94 |

| Compound | hERG current change (%, negative = inhibition) at 10uM [%] |
| --- | --- |
| O=C(CNC(=O)c1ccco1)N=Nc1c(O)[nH]c2ccc(Br)cc12 | 16.8 |
| CCc1nc(C)cn1S(=O)(=O)c1ccc(Cl)c(Cl)c1Cl | -10.7 |
| CCOC(=O)C1CCCN(c2cc(NCCCO)c([N+](=O)[O-])c3nonc23)C1 (centres unmarked) | -40.7 |
| CCOc1ccc(OCc2nnc(SCC(=O)NC3CCS(=O)(=O)C3)n2-c2ccc(Cl)cc2)cc1 (centres unmarked) | -40.2 |
| CCCc1ncc(CN2CCCC(C(=O)Nc3ccc(-c4cccc(OC)c4)cc3)C2)cn1 (centres unmarked) | -39.7 |
| Cc1ccc(/C=C/C(=O)OCC(=O)N2CC(=O)Nc3ccccc32)o1 | -2.76 |
| CC1CCc2[nH]c3ccc(C(=O)N(C)CC(=O)Nc4cccc(F)c4)cc3c2C1 (centres unmarked) | -12.5 |
| CCOC(=O)c1[nH]c2ccc(C)cc2c1N=C(C)N(C)C | -9.99 |
| Cc1cc(C)nc(NC(=O)c2c(F)c(F)c(F)c(C(=O)Nc3cc(C)cc(C)n3)c2F)c1 | -8.14 |
| Cc1oc(/N=C/c2ccccc2O)c(C#N)c1C | 17.1 |
| CCOc1cc(C2CC(=O)NC(SCC)=C2C#N)ccc1O (centres unmarked) | 3.61 |
| CC(=O)c1cccc(NC(=S)NC(=O)c2cncc(Br)c2)c1 | 6.51 |
| Cl.OC(COc1ccc2c(c1)OCO2)CN1CCN(c2ccccc2)CC1 (centres unmarked) | -2.44 |
| CCOc1ccc(N2C(=O)Nc3ccc(Br)cc3C2(O)C(=O)NCCCN(C)C)cc1 (centres unmarked) | 12.3 |
| Cc1c(C(=O)N2CCc3ccccc3C2)sc2nc(-c3ccccc3)cn12 | -15.3 |
| CCOC(=O)c1nn(-c2ccccc2F)c2nc(Nc3ccccc3)cc(=O)n12 | 8.14 |
| C[C@H](NC(=O)c1nc[nH]c1C(=O)NCc1ccccc1)c1ccccc1 | 5.54 |
| CC1CCCCC1NC(=O)c1nnc(Cc2ccc(Cl)cc2)o1 (centres unmarked) | -9.72 |
| O=C(Nc1ccccn1)c1ccc(S(=O)(=O)N2CCCCC2)cc1 | 0.489 |
| O=C(Cn1cc(Br)ccc1=O)Nc1ccc2c(c1)OCO2 | 22 |
